Read counts are not given, so values of variants with three or more changes are uncertain.
B1: LINE1-mini (parent)
chain: GGCAGAGCUCAACACAGCGUGGCAAAGUGGCUGUGGCUAGACUGCC

Variants of: B1
Test: self-cleavage, relative activity (ratio to wild type); higher = more cleavage; in vitro, sequencing; the parent is a self-cleaving ribozyme
Work on C15A A25C U28A G29C G30U C37G C46G yielded a self-cleavage of 0.01.
G2C C10A G21C showed a self-cleavage of 0.03.
G2C C13U A26G G29A C37A G44U gave a self-cleavage of 0.03.
U20G U34C G40C gave a self-cleavage of 0.
Variant C18A G29U C45A has a self-cleavage of 0.54.
In the case of A11U C23G U32A, the self-cleavage is reported as 0.01.
Work on C23U U32A U34A yielded a self-cleavage of 0.05.
In the case of C23U G29U C31G, the self-cleavage is reported as 0.03.
Work on U20A A24C G27A U28G U34G yielded a self-cleavage of 0.02.
Work on A16C U32G C37U yielded a self-cleavage of 0.
Work on C3G C18U U34C A41U yielded a self-cleavage of 0.14.
For G1U A12C G17U, the self-cleavage was 0.02.
With U9A G27U U34A G40U the self-cleavage was 0.05.
Variant C13A U20G C42G has a self-cleavage of 0.03.
G21C G27A U32G gave a self-cleavage of 0.08.
G1A G2C A12U C13A C31A showed a self-cleavage of 0.08.
With C3A C8A A14G G19U U28G U34C G44U C46U the self-cleavage was 0.02.
In the case of C8U A12G C23U C45U, the self-cleavage is reported as 0.07.
For G5U A11C C13A G29U, the self-cleavage was 0.
Variant C3G G19A C23G G33A U34C G35U has a self-cleavage of 0.11.
G17C G29C U38G G44A gave a self-cleavage of 0.04.
In the case of G1C G2A G30A, the self-cleavage is reported as 0.05.
In the case of G1C C23U A41C, the self-cleavage is reported as 0.02.
A4G C13A C15G G22A gave a self-cleavage of 0.06.
In the case of A6G G19U G22U U32A C45A, the self-cleavage is reported as 0.42.
For G2C C3G G44U, the self-cleavage was 0.05.
For C3U A4U C45A, the self-cleavage was 0.14.
Work on U9G G17A G30U G40U yielded a self-cleavage of 0.03.
Work on C13A A16U C23A G40U yielded a self-cleavage of 0.09.
With G21C A26C G29U G36A the self-cleavage was 0.02.
In the case of A24U G29U G30U U34G, the self-cleavage is reported as 0.09.
Variant C3U C31U G40U G44U C45G has a self-cleavage of 0.05.
Variant G2A A4U G27C G29U G40A C45G has a self-cleavage of 0.15.
Work on G7C G17U C18A C23U A25U yielded a self-cleavage of 0.05.
Variant A11C U20A G21C U32C C42A has a self-cleavage of 0.01.
C8G G17U U38C showed a self-cleavage of 0.07.
With G1A G36A C37A the self-cleavage was 0.03.
A6C A14C G22A C37G G44U gave a self-cleavage of 0.22.
Variant A4G C8A G40C has a self-cleavage of 0.17.
G5A C13U A24G C31G G35A showed a self-cleavage of 0.04.
C10U A16U C23U A24U C42U gave a self-cleavage of 0.
C18G A25C U34A C37A showed a self-cleavage of 0.02.
Variant C10U A14G G22A has a self-cleavage of 0.11.
For G2C C13U U28C U38G, the self-cleavage was 0.01.
G19C G21A C23U gave a self-cleavage of 0.81.
In the case of C3U C23U A24C U32G G36U, the self-cleavage is reported as 0.08.
For A14G C31G G36A, the self-cleavage was 0.06.
A14U U20C G21C U28A C42U showed a self-cleavage of 0.01.
A11G C13A A16U U20A showed a self-cleavage of 0.06.
With G5A A6G U20A the self-cleavage was 0.06.
U9A C10A U20C showed a self-cleavage of 0.03.
For G1A A14C A24C C37U, the self-cleavage was 0.03.
With C10U C31G G44A C46A the self-cleavage was 0.02.
G1U C3G A14G G19U U20G U34G G35U gave a self-cleavage of 0.5.
In the case of G1C C18U G36C C37G U38A, the self-cleavage is reported as 0.
Work on G2C C8A C15A C46A yielded a self-cleavage of 0.06.
Work on C10U G35A G40C yielded a self-cleavage of 0.1.
In the case of G1U C23U U28A A41G, the self-cleavage is reported as 0.09.
Work on C3A G7C C10U G22A C23G G40A U43G yielded a self-cleavage of 0.04.
Work on G1U G30A G33C yielded a self-cleavage of 0.02.
For G1A A24G C42U, the self-cleavage was 0.09.
With G17C G27U G33U the self-cleavage was 0.03.
Work on G2U G21U A41U yielded a self-cleavage of 0.41.
C10A G17A A25C U43C showed a self-cleavage of 0.02.
Work on G5C C42A C45U yielded a self-cleavage of 0.01.
In the case of G2U C18A A24C C31U A39U C42A, the self-cleavage is reported as 0.01.
A4G G33A G40U showed a self-cleavage of 0.12.
Work on G7U G36C C45A yielded a self-cleavage of 0.14.
For G17C A24C A26G G33A U34A, the self-cleavage was 0.02.
In the case of C10U G30A G36A, the self-cleavage is reported as 0.04.
Work on A4U C10U G17A G36U yielded a self-cleavage of 0.07.
A12C G17U U20A G40A C42U showed a self-cleavage of 0.
For G7A A14U G17C, the self-cleavage was 0.15.
G2U A4U A25U C45G gave a self-cleavage of 0.08.
In the case of A11U G17A C45G, the self-cleavage is reported as 0.03.
Work on G5C C13G G17U G21U U28A C37U U43A yielded a self-cleavage of 0.02.
C8U G33C G40U A41C gave a self-cleavage of 0.06.
G2C G40C C42A G44C gave a self-cleavage of 0.11.
A4C G5U C8G showed a self-cleavage of 0.44.
Variant G22C A24U A25C has a self-cleavage of 0.14.
In the case of A6U G21U C31G, the self-cleavage is reported as 0.27.
In the case of G1U C10U A39U, the self-cleavage is reported as 0.01.
G5C G17A C18A G33U showed a self-cleavage of 0.03.
A4U C10A A41C gave a self-cleavage of 0.01.
For G7U C8U G19A A24C G36U, the self-cleavage was 0.12.
A4C G21C U32A showed a self-cleavage of 0.35.
A12C G21A G36A C37A showed a self-cleavage of 0.12.
G27C U34A G44U showed a self-cleavage of 0.02.
With G2A C8A G17C C18G G44C C45U the self-cleavage was 0.21.
C8G A14G C31U A39G A41U showed a self-cleavage of 0.03.
For C18U U34C U43A, the self-cleavage was 0.03.
U9G A25C A39C G40U C45U showed a self-cleavage of 0.02.
With G1U U9A G44A the self-cleavage was 0.02.
For G7A C13A U28A C31G, the self-cleavage was 0.19.
G7C C23U A41C gave a self-cleavage of 0.07.
In the case of A25G G35A C45U, the self-cleavage is reported as 0.12.
Work on G2C A12U C15U G36A A39U G40U C42U yielded a self-cleavage of 0.08.
Work on A6G A26G U34A G44A yielded a self-cleavage of 0.07.
C18U C42A C46U showed a self-cleavage of 0.09.
G5U G7U A11G A12G gave a self-cleavage of 0.01.
A4G A14G C15G G21U showed a self-cleavage of 0.24.
Variant A6G A26U C37A A39U has a self-cleavage of 0.04.
In the case of A12G G19A G21A G27U U43A C46G, the self-cleavage is reported as 0.01.
Work on C13U C15G C23A yielded a self-cleavage of 0.01.
Work on A11U C13A G22C A26U G36U yielded a self-cleavage of 0.
For C8A A12G C46U, the self-cleavage was 0.11.
For G5U C42G C45A, the self-cleavage was 0.
For C13A C18G G27U, the self-cleavage was 0.26.
With A14U A41U C45U the self-cleavage was 0.12.
For G35U C37A C46A, the self-cleavage was 0.06.
With C15A C31A G36C the self-cleavage was 0.06.
C8G C18G G19C G35A showed a self-cleavage of 0.07.
A6U G7U G22A C42U showed a self-cleavage of 0.02.
Variant G2A U9G G33U G35C C42G has a self-cleavage of 0.07.
In the case of C8U A16G A41C, the self-cleavage is reported as 0.03.
Work on G30U G35C C37G yielded a self-cleavage of 0.11.
Variant G2C C23U G29A has a self-cleavage of 0.2.
A4C C10A G19C U38G G40A gave a self-cleavage of 0.01.
A14U C15G U34A gave a self-cleavage of 0.03.
G5A G7A A14C A24U G30A G33C G36U A39U C42A gave a self-cleavage of 0.04.
With A6U G7U G29U the self-cleavage was 0.07.
With G1U A4C G21A the self-cleavage was 0.29.
In the case of G29U G36A U38G, the self-cleavage is reported as 0.04.
In the case of C3U C8G A12G A16C A25C G40A, the self-cleavage is reported as 0.
Work on C13A C15A G21A G36C yielded a self-cleavage of 0.04.
G1A U9C C13A U28C G29C C37A A39C showed a self-cleavage of 0.03.
Variant G1C C8G G36A C46U has a self-cleavage of 0.02.
In the case of C3U A4G C42U, the self-cleavage is reported as 0.09.
Work on G19U G30A G44C yielded a self-cleavage of 0.31.
In the case of A4C C10U A24U G44U, the self-cleavage is reported as 0.03.
Variant U20A G30U C45A has a self-cleavage of 0.32.
Variant C23U G29U G40U has a self-cleavage of 0.05.
C8U C13G A14G U32C showed a self-cleavage of 0.01.
G1C G5U A11U A12C U20C C23U A26C G30A showed a self-cleavage of 0.
With G21C G27C G40C the self-cleavage was 0.14.
For C13G G19A C31A G36A U43A, the self-cleavage was 0.03.
Variant G1A C8U A14C G17U has a self-cleavage of 0.06.
C8A U9G A39U gave a self-cleavage of 0.
For U9G C10U C37U U38A A39U, the self-cleavage was 0.01.
In the case of G1U G17U U28C G44A, the self-cleavage is reported as 0.05.
Work on C8G U9A A24C C42G yielded a self-cleavage of 0.11.
With G5C C10A G21C C23A A24U C45G the self-cleavage was 0.02.
Work on U9G C10A G17C C42A yielded a self-cleavage of 0.01.
C3U C18U G33U C42A showed a self-cleavage of 0.06.
A6U A14C C18G G30A G44C showed a self-cleavage of 0.35.
C8U C10A C13G C18A A25C showed a self-cleavage of 0.02.
Variant G5U C10A G19C A25U has a self-cleavage of 0.03.
With C13U U32A G35U C37U the self-cleavage was 0.26.
A4U C15U C18G C31A showed a self-cleavage of 0.22.
For G1U C10G C15G G36A U38G, the self-cleavage was 0.02.
U9G C10U A16G G17U gave a self-cleavage of 0.08.
G35U A41U G44U showed a self-cleavage of 0.07.
C23U G27U G35A showed a self-cleavage of 0.07.
A12G G19U G22A C31U C37U gave a self-cleavage of 0.01.
A4U A12G C13G gave a self-cleavage of 0.04.
G1A C23A A25C gave a self-cleavage of 0.46.
For C3G G29A C46A, the self-cleavage was 0.21.
C3U U28A C31G G40U showed a self-cleavage of 0.02.
Variant G35C A39G C45U has a self-cleavage of 0.04.
Work on C10A G21C U34A yielded a self-cleavage of 0.02.
C10G C45G C46A showed a self-cleavage of 0.05.
Work on G22A G33U C37G A41C yielded a self-cleavage of 0.04.
For A6G C23U G29U A41U, the self-cleavage was 0.18.
For U9A A16C U32A, the self-cleavage was 0.04.
A11U C15U G33A C37U showed a self-cleavage of 0.01.
For A4G G17U A24U G35U G36A, the self-cleavage was 0.26.
In the case of C10A A26G U28G, the self-cleavage is reported as 0.04.

Source: the RNAGym collection of RNA variant scans (doi:10.7554/elife.90254)
